# Data as given in PubChem BioAssay AID2546 (National Center for Advancing Translational Sciences (NCATS), 2010).
# Out of some 310,000 compounds screened, about 11,000 (3.5%) were called active. This list was built around the results that the source calls inconclusive (neither active nor inactive); the mix of calls is not that of the screen. Calls come from the whole dose curve; as a rule, active = well fitted inhibition curve with a large enough effect; inconclusive = small, poorly fitted or top-dose-only effect, or effect the other way; inactive = flat fitted curve, though single readings scatter. No potency is given beside an inconclusive call; the fits are too rough.
# Experiment: VP16 counterscreen qHTS for inhibitors of ROR gamma transcriptional activity;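 note: Gal4-VP16 expression switched on by copper sulfate through the metallothionein promoter; nearly all actives have a fitted effect of over 50% in size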
# Conditions: Drosophila S2 Gal4-VP16 UAS-luciferase, luminescence, 20 h; activity, negative = inhibition: at 53.6 µM (top of the series)
# % is set by controls: 0 for no effect and ±100 for the full control effect; potency is the fitted concentration of half-maximal effect; tags give direction and shape of the fitted curve.
SMILES,Potency,"activity, negative = inhibition"
CCN1C(=O)c2cccc3c(S(=O)(=O)Nc4ccccc4)ccc1c23,"inconclusive [inhibitor, single point]",
Cc1cc(-c2ccccc2)nc(-c2ccccc2)c1C,"inconclusive [inhibitor, single point]",
S=c1[nH]nc(-c2cccnc2)n1C1CCCCC1,"inconclusive [inhibitor, single point]",
COc1ccc(C2CC(c3ccccc3)=NN2C(=O)COC(=O)c2cccc(S(=O)(=O)N3CCOCC3)c2)cc1 (centres undefined),,inactive: 0.128%
Cc1cc(-n2c(C)cc(C(=O)CCl)c2C)no1,"inconclusive [inhibitor, single point]",
COc1ccccc1N1CCN(C(=S)NC(=O)/C=C/c2ccc(F)cc2)CC1,active: 10 µM,
CN(c1ccc(OCC(=O)Nc2nc3ccccc3s2)cc1)S(=O)(=O)c1ccccc1,"inconclusive [inhibitor, single point]",
COc1ccc2nc(N=Nc3c(O)ccc4ccccc34)sc2c1,active: 4.47 µM,
O=C(C(Cc1ccccc1)n1cccc1)N1CCc2ccccc21 (centres undefined),"inconclusive [inhibitor, single point]",
COc1ccc(NS(=O)(=O)c2ccc(N3CCCC3)c(NC(=S)Nc3cccc(C)c3C)c2)cc1,"inconclusive [inhibitor, single point]",
Cc1ccc(CNc2ccc(N3CCOCC3)cc2)s1,"inconclusive [inhibitor, full curve]",
Cc1cccc(NC(=S)Nc2ccc(N3CCOCC3)cc2)c1C,"inconclusive [inhibitor, single point]",
Cc1ccc(-c2cn(-c3ccccc3)c(SCC(=O)NC3CCS(=O)(=O)C3)n2)cc1C (centres undefined),"inconclusive [inhibitor, single point]",
COc1ccc(CO/N=C/c2c(C)[nH]c(=O)[nH]c2=O)cc1,,inactive: -3.67%
COc1cc(OC)c2c(-c3cccc(-c4sccc4C(C)=O)c3)cc(=O)oc2c1,"inconclusive [inhibitor, partial curve]",
Cc1nn(Cc2ccccc2)c(Cl)c1/C=N/NC(=O)CNc1cccc(C(F)(F)F)c1,"inconclusive [inhibitor, single point]",
CSc1nncn1/N=C/c1cc(Cl)ccc1F,"inconclusive [inhibitor, partial curve]",
NC(=O)C1CCN(C2CC(=O)NC2=O)CC1 (centres undefined),"inconclusive [inhibitor, single point]",
COc1ccc(Cc2noc(-c3ccccc3)n2)cc1OC,"inconclusive [inhibitor, partial curve]",
